From PubChem BioAssay AID488969 (Vanderbilt High Throughput Screening Facility, 2010)
Over roughly 110,000 compounds, “z-score” has its median near -0.1; the highest 2% begin near 2. Some of the results follow. Activity calls are given as the source filed them.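 Rule for the calls: active = z-score in the third read window above 3 or below -3; inactive = the rest.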

Target: Metabotropic glutamate receptor 8 (Rattus norvegicus) (UniProt P70579)
Assay: rat mGluR8 modulators via GIRK flux, primary screen, cell-based, thallium flux, HTS (AID 488969)
Conditions: HEK293 rat mGluR8, GIRK (G protein-gated inwardly rectifying potassium channel) thallium flux, FluoZin2; at 10 µM; stronger effect = higher value; submaximal glutamate (EC20) added with thallium

Chain of UniProt P70579 (P70579 whole entry, looked up): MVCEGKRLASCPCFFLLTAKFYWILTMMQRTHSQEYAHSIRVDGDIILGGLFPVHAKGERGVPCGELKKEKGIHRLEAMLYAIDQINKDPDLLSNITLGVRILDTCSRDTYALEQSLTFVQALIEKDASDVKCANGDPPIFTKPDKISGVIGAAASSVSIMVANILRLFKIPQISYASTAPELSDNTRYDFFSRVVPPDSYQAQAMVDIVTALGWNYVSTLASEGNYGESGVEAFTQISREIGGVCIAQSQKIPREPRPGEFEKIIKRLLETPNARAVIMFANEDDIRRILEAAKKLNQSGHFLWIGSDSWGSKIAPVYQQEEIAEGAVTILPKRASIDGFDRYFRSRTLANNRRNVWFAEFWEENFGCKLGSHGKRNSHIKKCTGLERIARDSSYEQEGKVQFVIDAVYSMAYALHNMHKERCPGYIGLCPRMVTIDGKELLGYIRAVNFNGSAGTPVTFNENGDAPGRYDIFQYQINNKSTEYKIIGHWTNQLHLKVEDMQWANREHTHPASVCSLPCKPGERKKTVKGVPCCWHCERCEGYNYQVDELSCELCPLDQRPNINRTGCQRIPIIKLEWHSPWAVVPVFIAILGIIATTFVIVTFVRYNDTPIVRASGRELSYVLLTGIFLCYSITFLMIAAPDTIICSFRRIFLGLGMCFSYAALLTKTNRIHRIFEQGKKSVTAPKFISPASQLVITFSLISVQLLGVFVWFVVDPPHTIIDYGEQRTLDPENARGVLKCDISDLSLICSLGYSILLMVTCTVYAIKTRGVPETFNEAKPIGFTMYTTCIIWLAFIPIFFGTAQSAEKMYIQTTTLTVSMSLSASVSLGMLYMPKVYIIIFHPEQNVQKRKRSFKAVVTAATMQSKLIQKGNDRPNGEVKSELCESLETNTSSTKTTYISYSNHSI

First: COc1ccc(-c2nnc3sc(CCN4C(=O)c5ccccc5C4=O)nn23)cc1
Second: COc1ccc(-c2nnc(SCCOc3cccc(C)c3)n2N)cc1
The z-score of the first is lower: -0.591 for the first, -0.058 for the second.

First: CCOc1ccc(S(=O)(=O)N2CCCCC2)c2ccccc12
Second: CNC(=O)CSc1nnc(-c2ccc(S(=O)(=O)N3CCCC3)cc2)n1-c1cccc(C)c1C
The z-score of the first is higher: 0.294 for the first, -0.443 for the second.

First: Cc1ccc(N(CC(=O)Nc2c(C)n(C)n(-c3ccccc3)c2=O)S(C)(=O)=O)cc1C
Second: COc1ccccc1NC(=O)Nc1c(C)n(C)n(-c2ccccc2)c1=O
The z-score of the first is lower: 0.205 for the first, 0.24 for the second.

Going from `Cc1ccccc1NC(=O)c1c(C)[nH]c(=S)c(C#N)c1-c1ccco1` to `COc1ccc2c(CCNC(=O)c3ccco3)c[nH]c2c1`, the z-score falls from -0.529 to -0.537.

First: COc1ccc(Cc2nnc(SCc3nc4ccccc4c(=O)[nH]3)o2)cc1
Second: COc1ccc(C(=O)NCc2nnc(SCC(=O)Nc3nc4ccccc4s3)o2)cc1
The z-score of the first is higher: 0.393 for the first, -0.198 for the second.

Compared with `CC1CC(=O)C(C2c3ccccc3CCN2C(=O)CCl)C(=O)C1` (stereo not drawn), `CN(CC(=O)N1CCc2ccccc21)S(=O)(=O)c1ccc(Br)s1` is lower in z-score: -0.138 for the first, -0.319 for the second.

Going from `CCOc1ccc2nc(Cl)c(/C=C/C(=O)c3ccco3)cc2c1` to `CCOC(=O)c1ccc(N2N=C(C)/C(=C/C=C/c3ccco3)C2=O)cc1`, the z-score rises from -0.0563 to 0.523.

Going from `COc1ccccc1N1CCN(Cc2nc(N)nc(Nc3ccc(C)cc3)n2)CC1` to `COc1cc(C(=O)N2CCN(c3cccc(C)c3C)CC2)cc(OC)c1OC`, the z-score rises from -0.223 to -0.0699.

First: COC(=O)c1ccc(-c2nc(-c3ccc(Br)o3)no2)cc1
Second: COc1ccc(-c2[nH]nc3oc(=O)cc(C)c23)cc1
The z-score of the first is higher: -0.238 for the first, -0.514 for the second.

First: O=C(Nc1ccc(Br)cc1)/C(=C/c1cccc([N+](=O)[O-])c1)NC(=O)C1CCCCC1
Second: O=C(/C=C/c1cccc([N+](=O)[O-])c1)NCCSCc1ccc(Cl)cc1
The z-score of the first is higher: -0.00443 for the first, -0.207 for the second.

Going from `CCCCOC(=O)Nc1nc2ccc(OC)cc2s1` to `CCOC(=O)CSc1nc2ccc(N)cc2s1`, the z-score falls from 0.178 to -0.621.

First: Cc1nc(-c2ccccc2)nc2[nH]c(=O)n(-c3ccccc3)c(=O)c12
Second: Cc1ccc(-c2n[nH]c(=S)n2-c2ccccc2)cc1
The z-score of the first is lower: -0.181 for the first, 0.376 for the second.

Compared with `CCOC(=O)CC1=NN(c2ccccc2)C(=O)/C1=C\c1ccc(N(C)C)cc1`, `COc1ccc(C(C)=O)cc1CSc1nnc(-c2ccccc2O)n1-c1ccccc1` is lower in z-score: -0.241 for the first, -0.352 for the second.

First: CCOC(=O)c1c(NC(=O)COC(=O)c2cc(OC)c(OC)cc2[N+](=O)[O-])sc(C)c1CC
Second: CCOC(=O)c1c(NC(=O)c2cc3n(n2)C(C(F)(F)F)CC(c2cccs2)N3)sc(C)c1C (stereo not drawn)
The z-score of the first is higher: -0.164 for the first, -0.183 for the second.

First: Cc1cc(C(=O)NNC(=S)NC(C)c2ccccc2)cs1 (stereo not drawn)
Second: COc1ccccc1C(=O)NNC(=O)c1ccccc1F
The z-score of the first is lower: -0.281 for the first, -0.182 for the second.

Compared with `Cc1cccc(NC(=O)CCN2CCN(C/C=C/c3ccccc3)CC2)c1`, `COC(=O)/C(=N/Nc1cccc(C)c1)N1CCCc2ccccc21` is lower in z-score: -0.052 for the first, -0.389 for the second.

Compared with `O=C(c1cc(-c2ccccc2O)on1)N1CCCC1`, `O=C(c1cc(C2CC2)on1)N1CCN(c2ccccc2)CC1` is lower in z-score: 1.16 for the first, 0.0624 for the second.

Compared with `COc1ncnc2c1N[C@@](C)(O)c1c(F)c(F)c(F)c(F)c1S2`, `COCCNC(=O)c1cn(Cc2c(F)cccc2Cl)nn1` is higher in z-score: -0.0317 for the first, 0.915 for the second.

Compared with `Cc1cc(NC(=O)/C=C/c2ccc(Cl)cc2)no1`, `O=C(CSCc1ccc(Cl)cc1)NCC1CCCO1` (stereo not drawn) is lower in z-score: -0.135 for the first, -0.345 for the second.

Compared with `Cc1ccc(S(=O)(=O)N2CCCC2C(=O)Nc2nc3ccccc3s2)cc1` (stereo not drawn), `Cc1ccc(N2CC(C(=O)Nc3ccc4c(c3)OCCO4)CC2=O)cc1` (stereo not drawn) is higher in z-score: 0.0613 for the first, 0.958 for the second.

Going from `COC(=O)CC1SC(=O)NC1=Nc1ccc(O)cc1` (stereo not drawn) to `COc1ccc(NC(=O)c2cccs2)cc1`, the z-score rises from -0.0696 to 0.303.

Going from `O=C(c1ccc(Cl)cc1)c1oc2ccccc2c1CS(=O)c1ccc(Cl)cc1` (stereo not drawn) to `COc1ccc(-c2cc(=Nc3ccc(C)cc3)c3ccccc3o2)cc1`, the z-score rises from -0.0958 to -0.0733.

First: O=c1cc(O)c2c(=O)n(-c3ccccc3)c3c(c2o1)CCCCCC3
Second: c1ccc(CSc2ncnc3c2sc2nc(N4CCOCC4)c4c(c23)CCCC4)cc1
The z-score of the first is higher: 1.76 for the first, -0.111 for the second.

Compared with `COc1ccc(OC)c(CCNC(=O)CN2C(=O)CC(C)(C)S(=O)(=O)c3ccccc32)c1`, `CCn1c(CCNC(=O)c2ccc(OC)c(OC)c2)nc2ccccc21` is lower in z-score: 0.0628 for the first, -0.369 for the second.

Going from `Cc1cccc(-n2c(O)c(C=NCc3ccccn3)c3ccccc3c2=O)c1` to `Cc1cccc(Cn2cc(SCC(=O)Nc3nccs3)c3ccccc32)c1`, the z-score rises from -0.159 to -0.0215.

Going from `O=C(/C(=C(\[O-])c1ccccc1)[n+]1ccc2ccccc2c1)c1ccccc1` to `C/C(=N/Nc1nc(-c2ccccc2)cc(-c2ccccc2)n1)c1ccc(N)cc1`, the z-score rises from -0.294 to 0.479.

Compared with `CC(NC(=S)Nc1ccccc1)C1COc2ccccc2O1` (stereo not drawn), `O=C(NCc1ccco1)C1c2ccccc2Oc2ccccc21` is lower in z-score: -2.2e-06 for the first, -0.16 for the second.

Compared with `C=CCn1c(SCC(=O)Nc2cc(OC)c(NC(=O)c3ccco3)cc2OC)nnc1-c1ccncc1`, `C=CCn1c(SCC(=O)c2[nH]c(C)c(C(C)=O)c2C)nnc1-c1ccncc1` is higher in z-score: -0.521 for the first, 0.2 for the second.

Going from `N#Cc1c(/N=C/N2CCOCC2)sc2c1CCCCC2` to `N#Cc1c(N2CCN(C(=O)c3ccccc3)CC2)nc(-c2ccccc2)c2c1CCCC2`, the z-score rises from 0.6 to 2.92.

Compared with `N#Cc1c(SCC(N)=O)nc2c(c1-c1ccc(OCc3ccccc3)cc1)CCCC2`, `CCOC(=O)C(Cc1ccccc1)NC(=O)Cn1nnc(-c2ccc(SC)cc2)n1` (stereo not drawn) is higher in z-score: 0.0179 for the first, 1.52 for the second.

Compared with `CCn1c(Cc2c(C)[nH]c3ccccc23)nnc1SCC(=O)NCc1ccccc1`, `O=C(NCc1ccccc1)c1nc2c(nnn2Cc2cccc(Cl)c2)c(=O)[nH]1` is lower in z-score: 0.429 for the first, -2.18 for the second.

First: CCN1C(=O)/C(=C/c2c(C)nn(C)c2C)SC1=S
Second: CC(=O)c1c(C)nn(C(=O)c2cccs2)c1C
The z-score of the first is higher: -0.0885 for the first, -0.172 for the second.

Going from `Cc1cc(/C=C(\C#N)C(N)=O)c(C)n1-c1ccc(N2CCOCC2)c([N+](=O)[O-])c1` to `O=C1CC(Nc2ccc(N3CCOCC3)cc2)C(=O)N1c1cccc(C(F)(F)F)c1` (stereo not drawn), the z-score falls from 0.779 to 0.146.

Compared with `O=C(NCc1ccccc1F)c1cccs1`, `Fc1ccccc1CSc1nc2ccccc2[nH]1` is higher in z-score: -0.158 for the first, 0.129 for the second.

Going from `O=C(NC(=S)Nc1ccc(NC(=O)c2cccs2)cc1)c1ccco1` to `CC(=O)c1ccc(NC(=O)c2ccc3nc(-c4ccco4)c(-c4ccco4)nc3c2)cc1`, the z-score falls from 0.574 to -0.096.

Going from `Cc1nn(-c2ccccc2)c(N2CCCC2)c1/C=N/NC(=O)c1cc(-c2ccccc2)nc2ccccc12` to `COc1ccc(-c2nn(-c3ccccc3)cc2C(=O)Nc2nccs2)cc1OC`, the z-score falls from -0.334 to -0.662.

Going from `O=C(CSc1ncccc1-c1nc2ccccc2[nH]1)Nc1ccc2c(c1)OCCO2` to `CN(C)S(=O)(=O)c1ccc(Nc2ccc(-c3ccc4c(c3)OCCO4)nn2)cc1`, the z-score rises from -0.327 to -0.02.

Going from `COc1ccc(S(=O)(=O)Cc2ccc(C(=O)NCCc3ccc(S(N)(=O)=O)cc3)o2)cc1` to `CN(C)c1ccc(CNC(=O)c2ccc(CNc3c(N4CCCCC4)c(=O)c3=O)cc2)cc1`, the z-score falls from -0.0374 to -0.328.

First: O=c1/c(=C/c2cccc3ccccc23)sc2ncnn12
Second: CCN(CC(=O)c1c(N)n(C)c(=O)n(C)c1=O)c1cccc2ccccc12
The z-score of the first is lower: 1.25 for the first, 2.55 for the second.

Compared with `O=C(NCCNS(=O)(=O)c1ccccc1)c1cc(OCC(F)(F)F)ccc1OCC(F)(F)F`, `COc1ccccc1N(CC(=O)NCc1ccccc1)C(=O)CCC(=O)Nc1ccccn1` is lower in z-score: 0.0829 for the first, -1.03 for the second.

First: CN1CCN(Cc2nc3c(c(=O)[nH]c(=O)n3C)n2CCc2ccccc2)CC1
Second: Cn1c(C(=O)NCCCN2CCOCC2)cc2c(=O)n(C)c3ccccc3c21
The z-score of the first is lower: -0.00916 for the first, 0.0335 for the second.

First: COc1ccc(C)c2sc(=NC(=O)c3ccccc3)n(C)c12
Second: COc1ccccc1NC(=O)Cn1ncc2c1-c1ccccc1OC2
The z-score of the first is lower: 0.0409 for the first, 0.762 for the second.

Going from `O=C(CCCn1cnc([N+](=O)[O-])n1)Nc1cccc(Cl)c1Cl` to `CCCn1c(SCC(=O)N2CCN(S(=O)(=O)c3ccc(Cl)cc3)CC2)n[nH]c1=O`, the z-score falls from 0.147 to -0.385.

Compared with `Cc1cc(C(=O)OCC(=O)N2CC(=O)Nc3ccccc32)c(C)n1-c1ccc(F)cc1`, `CCOC(=O)/C=c1\s/c(=C\c2ccccc2C)c(=O)n1CC(=O)NCc1ccc2c(c1)OCO2` is higher in z-score: -0.228 for the first, 0.0429 for the second.

Compared with `CN(C)c1nc(N)nc(CSc2nnnn2-c2cccc3ccccc23)n1`, `O=C(CSc1nnc(-c2ccncc2)o1)Oc1ccccc1` is lower in z-score: 0.0747 for the first, -0.861 for the second.

First: COc1cccc(NC(=S)Nc2cccnc2)c1
Second: O=C(CSCCO)Nc1cccc(C(F)(F)F)c1
The z-score of the first is lower: -0.0965 for the first, 0.657 for the second.

Going from `O=C(O)CN1CCNCC1` to `CCOC(=O)c1[nH]c2ccc(Br)cc2c1NC(=O)CCN1CCN(C(=O)OCC)CC1`, the z-score falls from -0.134 to -0.779.

Compared with `CCOC(=O)c1cccc(P(=O)(C(C)(C)C)C(C)(C)C)c1`, `CC(C)c1nc2ccc(C(=O)O)cc2[nH]1` is higher in z-score: -0.208 for the first, -0.0251 for the second.

Compared with `Cc1ccccc1NC(=S)NC(NC(=O)N(C)C)C(Cl)(Cl)Cl` (stereo not drawn), `CCCNC(=O)CCC(NS(=O)(=O)c1ccc(C)cc1)C(=O)NCCC` (stereo not drawn) is higher in z-score: -0.112 for the first, 1.66 for the second.

Compared with `COC(=O)C1C(O)=CC(=O)CC1C` (stereo not drawn), `Cc1ccc(C(=O)Nc2ncc(C)s2)o1` is lower in z-score: -0.249 for the first, -0.322 for the second.

Compared with `CCCCc1nc(Cl)c(C#N)c2c1CSC(C)(C)C2`, `CCC(C)C1C(C#N)=C(N)OC2=C1C(=O)CC(C)(C)C2` (stereo not drawn) is lower in z-score: 0.743 for the first, -0.794 for the second.

Compared with `O=C(CSC1=NCCS1)NC1CCCCC1`, `O=C(CSc1ccccn1)N/N=C/C=C/c1ccccc1` is lower in z-score: 0.281 for the first, -0.426 for the second.

Compared with `CC(C)CC(c1nnnn1Cc1ccccc1)N1CCC(C(N)=O)CC1` (stereo not drawn), `Cc1ccc(-c2cc(C(F)(F)F)n3nc(C(=O)N4CCCC4)cc3n2)cc1` is higher in z-score: 0.257 for the first, 0.899 for the second.

`Cc1cc(Oc2nc3c(C)cccn3c(=O)c2/C=C(\C#N)S(=O)(=O)c2ccc(Cl)cc2)ccc1Cl` showed a z-score of 0.0615.

`CCN(CC)C(=O)CSc1ncnc2sc(-c3ccccc3)cc12` was tested, and the z-score was active: 7.95.
